According to PubChem BioAssay AID463173 (ICCB-Longwood Screening Facility, Harvard Medical School, 2010):
The campaign covered roughly 52,000 compounds. About 4,300 (8.3%) were called active. No stated cut-off is given here; in the data, active means survival mostly below about 52% (no sharp cut-off); inactive means mostly above about 56%. This is one part of the list.

test system: DeltatarO mutant; experiment: S. aureus survival, RN4220 and DeltatarO strains – OD600, teichoic acid synthesis inhibitors, primary screen (AID 463173); settings: S. aureus RN4220 wild type/DeltatarO growth, OD600, 18 h, active compounds read low, screened at 18.75 µg/mL (by protocol)

Row | Compound | survival
1 | O=C(NCc1ccccc1)N(Cc1nc2ccccc2c(=O)[nH]1)C1CCCC1 | active: 52%
2 | COC(=O)c1cc2oc3ccccc3c2n1Cc1c(F)cccc1Cl | inactive: 118%
3 | CCc1cccc(NC(=O)CN2CCCN(Cc3cccc(C)c3)S2(=O)=O)c1 | inactive: 78%
4 | Cc1ccc(Cl)cc1N(C)C(=O)c1cnc(N2CCOCC2)c2ccccc12 | inactive: 98%
5 | CN(N)c1cc(=O)n(C)c(=O)[nH]1 | inactive: 96%
6 | CCOc1ccc2nc(NCCNC(=O)c3cc(OC)c(OC)c(OC)c3)c(C#N)cc2c1 | inactive: 76%
7 | CCN(CC)C(=O)C1CCCN(c2ncnc3onc(C)c23)C1 (configuration not stated) | inactive: 99%
8 | O=C(CC1Oc2ccc(Cl)cc2NC1=O)NCc1ccccc1 (configuration not stated) | inactive: 78%
9 | C/C(=N\NC(N)=O)C1CC(CC(C)C)C(=O)O1 (configuration not stated) | inactive: 101%
10 | CCOc1ccccc1C(=O)NC1CC2CCCC(C1)N2C1CC1 (configuration not stated) | inactive: 75%
11 | CCOC(=O)CC(NC(=O)Cn1nnc(-c2ccc(C(F)(F)F)cc2)n1)c1ccc(C)cc1 (configuration not stated) | inactive: 62%
12 | O=C(NCC(c1cccnc1)N1CCN(Cc2ccccc2)CC1)C(=O)Nc1cccc(F)c1 (configuration not stated) | inactive: 105%
13 | CCCCc1nn2c(=O)cc(COC(=O)c3cccc(NC(=O)c4cccs4)c3)nc2s1 | inactive: 62%
14 | CS(=O)(=O)N(CCc1ccccc1)CC(=O)N1CCCC1 | inactive: 100%
15 | CC(=O)Nc1ccc(NC(=O)c2csnn2)cc1 | inactive: 78%
16 | COCCN1C(=O)N(c2cccc(OC)c2)C(=O)C1CC(=O)Nc1ccccc1 (configuration not stated) | inactive: 139%
17 | O=C(NCc1ccc(Cl)cc1)C(=O)NCC(c1ccc2c(c1)OCO2)N1CCOCC1 (configuration not stated) | inactive: 98%
18 | COc1cc2ccccc2cc1C(=O)N1CCN(c2nc3c(F)cccc3s2)CC1 | inactive: 92%
19 | Cc1cc(C)n2c(Nc3ccc4c(c3)OCCO4)c(-c3ccccc3)nc2n1 | inactive: 117%

Row | Compound | survival
20 | CCS(=O)(=O)N1CC(=O)N(c2cc(C)cc(C)c2)C(C)(C(=O)NC2CCCCC2)C1 (configuration not stated) | inactive: 92%
21 | COc1ccc(N2CCN(CCCNC(=O)c3nnc(Cc4ccccc4Cl)o3)CC2)cc1 | inactive: 85%
22 | CC(=O)c1ccc(NC(=O)CSc2nnc(-c3ccncc3)n2-c2ccccc2)cc1 | inactive: 75%
23 | Cc1ccc(S(=O)(=O)c2[nH]c(-c3ccccc3)nc2SC(C)C(=O)O)cc1 (configuration not stated) | inactive: 77%
24 | O=C(c1ccccc1)N1CCC(c2nc3ccccc3o2)CC1 | inactive: 105%
25 | CC(=O)c1ccc(NC(=O)c2cc3c([nH]c2=O)CC(c2ccccc2)CC3=O)cc1 (configuration not stated) | inactive: 63%
26 | CCOc1ccc2c(c1)c(=O)c(C(=O)c1ccccc1)cn2Cc1ccccc1F | inactive: 83%
27 | COc1ccc(CCNC(=O)c2cnn(-c3cccc(C)c3)c2C2CCNCC2)cc1OC | inactive: 84%
28 | CN1C(=O)Cc2cc(S(=O)(=O)CCC(=O)Nc3ccc(Cl)cc3)ccc21 | inactive: 94%
29 | Cc1cc(F)ccc1NC(=O)CCS(=O)(=O)c1cc2c3c(c1)CCN3C(=O)CC2 | inactive: 101%
30 | COc1ccc(OC)c(CNS(=O)(=O)c2cc(-c3onc(C)c3C)ccc2C)c1 | inactive: 76%
31 | Cc1ccn2c(=O)cc(COc3ccc(NC(=O)C(C)(C)C)cc3)nc2c1 | inactive: 94%
32 | Cc1ccc2c(c1)N(C(=O)Nc1ccc(Br)cc1F)CCO2 | inactive: 84%
33 | COC(=O)c1ccccc1NC(=O)CSc1n[nH]c(C)n1 | inactive: 62%
34 | O=c1c2sc3ccccc3c2n(Cc2cccc(C(F)(F)F)c2)c(=O)n1-c1ccccc1 | inactive: 73%
35 | O=C1CSC(=O)N1CNc1cc(Cl)ccc1Cl | inactive: 71%
36 | CC(C)Oc1ccc(CNC(=O)CN2C(=O)c3cccnc3Oc3ccc(Cl)cc32)cc1 | inactive: 113%
37 | CCS(=O)(=O)N1CCc2cc(C(=O)NC(C)c3ccccc3)ccc21 (configuration not stated) | inactive: 79%
38 | FC(F)(F)c1cccc(N2CCN(c3nc4ccccc4n4cnnc34)CC2)c1 | active: 25%

Row | Compound | survival
39 | COc1ccc(-n2c(SC)nc3sc4c(c3c2=O)CCN(C(C)=O)C4)cc1 | inactive: 127%
40 | Cc1ccc(NC(=O)CSc2nnc(-c3cc4occc4n3C)n2-c2ccccc2C)c(C)c1 | inactive: 88%
41 | COc1ccc(CNC(=O)C2CCN(C(=O)c3cnn(-c4ccccc4)c3-n3cccc3)CC2)cc1 | inactive: 78%
42 | CCNC(=O)CC1C(=O)N(c2ccc(F)cc2)C(=O)N1Cc1ccc(OC)c(OC)c1 (configuration not stated) | inactive: 97%
43 | Cc1ccc(C(=O)N2CCN(c3cccc(Cl)c3)CC2)cc1-n1c(C)nc2cccnc21 | inactive: 70%
44 | CCc1ccccc1N(CC)C(=O)C(=O)Nc1ccc2nc3n(c(=O)c2c1)CCCCC3 | inactive: 69%
45 | O=C(c1ccc2c(c1)N(Cc1cccc(Cl)c1)C(=O)c1ccccc1S2(=O)=O)N1CCc2ccccc21 | active: 0%
46 | COc1cc(Cl)c(C)cc1NC(=O)C1CCCN(c2ncnc3onc(-c4ccc(F)cc4)c23)C1 (configuration not stated) | inactive: 72%
47 | COc1ccc(S(=O)(=O)c2cc3cc(C(C)(C)C)cc(O)c3oc2=O)cc1 | active: 26%
48 | Cn1c(COc2ccccc2C(C)(C)C)nc2ccccc21 | active: 5%
49 | Cn1c2c(c(=O)n(C)c1=O)C(c1ccccc1C(F)(F)F)CC(=O)N2 (configuration not stated) | inactive: 98%
50 | CCOC(=O)c1ccc(CN(Cc2ccc(F)cc2)S(=O)(=O)c2ccc(F)c(C(=O)Nc3ccccc3C(F)(F)F)c2)cc1 | inactive: 73%
51 | COC(=O)c1ccc(NS(=O)(=O)c2ccc3c(c2)n(C)c(=O)c(=O)n3C)cc1 | inactive: 79%
52 | N#Cc1c(-n2ncnc2-c2cccc(Cl)c2)sc2c1CCCCC2 | inactive: 61%
53 | CCOc1cccc(-c2nc3ccccc3c(=O)o2)c1 | active: 35%
54 | CCOC(=O)C1=C(CN(CC)Cc2ccccc2)NC(=O)NC1c1ccc(OC)cc1 (configuration not stated) | inactive: 65%
55 | COC(=O)c1c(-c2ccc(Cl)cc2)noc1N1CCN(c2ccccc2F)CC1 | inactive: 47%
56 | CCCCNC(=O)c1ccc2c(c1)NC(=O)C(C(C)C)N2 (configuration not stated) | inactive: 133%
57 | COc1ccc2c(c1)c1c(c(=O)n(-c3ccc(F)c(Cl)c3)c(=O)n1Cc1ccccc1F)n2C | inactive: 99%
